Assay results as given in US11230543B2, “Biaryl monobactam compounds and methods of use thereof for the treatment of bacterial infections” (priority 2015, dated 2022).
Counter-ions that a name gives are not always drawn. The name of at least one read-out is uncertain.

Key:
[1] = system: Acinetobacter baumannii expressing TEM-1, AmpC, and Oxa-24/40 (CL6188); assay: Antibiotic activity: growth inhibitory concentration (OD600), Acinetobacter baumannii CL6188; assay type: cell-based; conditions: lowest concentration inhibiting 95% of bacterial growth; in the presence of β lactamase inhibitor Relebactam 4 μg/mL; 35±2° C. for 22 hours; tested range 100 μM to 0.098 μM
Summary of the method: (§1)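 Growth inhibition by OD600 after 22 hours incubation at 35±2° C, reported as lowest concentration inhibiting 95% of growth (MITC95). Final compound range 100 μM to 0.098 μM, always combined with β-lactamase inhibitor relebactam (4 μg/mL final); inoculum ~2×10^5 CFU/mL in cation-adjusted Mueller-Hinton II broth.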

[2] = system: Escherichia coli expressing NDM-1 (CLB30016); assay: Antibiotic activity: growth inhibitory concentration (OD600), Escherichia coli CLB30016; assay type: cell-based; conditions: lowest concentration inhibiting 95% of bacterial growth; in the presence of β lactamase inhibitor Relebactam 4 μg/mL; 35±2° C. for 22 hours; tested range 100 μM to 0.098 μM
Summary of the method: as §1

## CC1(C)[C@H](NC(=O)/C(=N\OC(COc2ccc(C(N)CNC3=NCCN3)cc2)C(=O)O)c2csc(N)n2)C(=O)N1OS(=O)(=O)O (stereo in doubt) [Example 59, (R)-3-(4-((S)-1-amino-2-((4,5-dihydro-1H-imidazol-2-yl)amino)ethyl)phenoxy)-2-((((Z)-1-(2-aminothiazol-4-yl)-2-(((S)-2,2-dimethyl-4-oxo-1-(sulfooxy)azetidin-3-yl)amino)-2-oxoethylidene)amino)oxy)propanoic acid]
[1]
  AB_CL6188 MITC95: 12.5 µM
[2]
  EC_CLB30016 MITC95: 50 µM

## C[n+]1cc(-c2ccc(OC[C@H](O/N=C(\C(=O)N[C@@H]3C(=O)N(OS(=O)(=O)[O-])C3(C)C)c3csc(N)n3)C(=O)O)cc2)cnc1N(CCN)CC1CNC1 [Example 83, (S)-3-((Z)-2-(((S)-2-(4-(2-((2-aminoethyl)(azetidin-3-ylmethyl)amino)-1-methylpyrimidin-1-ium-5-yl)phenoxy)-1-carboxyethoxy)imino)-2-(2-aminothiazol-4-yl)acetamido)-2,2-dimethyl-4-oxoazetidin-1-yl sulfate]
[1]
  AB_CL6188 MITC95: 1.563 µM
[2]
  EC_CLB30016 MITC95: 3.125 µM

## C[n+]1c(N)c(-c2ccc(OC[C@H](O/N=C(\C(=O)N[C@@H]3C(=O)N(OS(=O)(=O)[O-])C3(C)C)c3nc(N)sc3Cl)C(=O)O)cc2)cn1CCCN [Example 49, (S)-3-((Z)-2-(((S)-2-(4-(3-Amino-1-(3-aminopropyl)-2-methyl-1H-pyrazol-2-ium-4-yl)phenoxy)-1-carboxyethoxy)imino)-2-(2-amino-5-chlorothiazol-4-yl)acetamido)-2,2-dimethyl-4-oxoazetidin-1-yl sulfate]
[1]
  AB_CL6188 MITC95: 3.125 µM
[2]
  EC_CLB30016 MITC95: 12.5 µM

## C[n+]1cc(-c2ccc(OC[C@](C)(O/N=C(\C(=O)N[C@@H]3C(=O)N(OS(=O)(=O)O)C3(C)C)c3csc(N)n3)C(=O)O)cc2)cn1CCCN (single isomer, unassigned) [Example 23B, 2,2,2-trifluoroacetate]
[1]
  AB_CL6188 MITC95: 12.5 µM
[2]
  EC_CLB30016 MITC95: 100 µM

## CC1(C)[C@H](NC(=O)/C(=N\O[C@@H](COc2ccc(Oc3cc[n+](CCCN)cc3)nc2)C(=O)O)c2csc(N)n2)C(=O)N1OS(=O)(=O)O.O=C([O-])C(F)(F)F [Example 34, 1-(3-aminopropyl)-4-((5-((S)-2-((((Z)-1-(2-aminothiazol-4-yl)-2-(((S)-2,2-dimethyl-4-oxo-1-(sulfooxy)azetidin-3-yl)amino)-2-oxoethylidene)amino)oxy)-2-carboxyethoxy)pyridin-2-yl)oxy)pyridin-1-ium 2,2,2-trifluoroacetate]
[1]
  AB_CL6188 MITC95: 12.5 µM
[2]
  EC_CLB30016 MITC95: 25 µM

## CC1(C)[C@H](NC(=O)/C(=N\OCCOc2ccc(-c3cnn(CCCN)c3)cc2)c2csc(N)n2)C(=O)N1OS(=O)(=O)O [Example 5, (S,Z)-3-(2-((2-(4-(1-(3-aminopropyl)-1H-pyrazol-4-yl)phenoxy)ethoxy)imino)-2-(2-aminothiazol-4-yl)acetamido)-2,2-dimethyl-4-oxoazetidin-1-yl sulfate]
[1]
  AB_CL6188 MITC95: 25 µM
[2]
  EC_CLB30016 MITC95: 100 µM

## C[n+]1cc(-c2ccc(OC[C@H](O/N=C(\C(=O)N[C@@H]3C(=O)N(OS(=O)(=O)[O-])C3(C)C)c3csc(N)n3)C(=O)O)cc2)cn1CCN [Example 17, (S)-3-((Z)-2-(((S)-2-(4-(1-(2-aminoethyl)-2-methyl-1H-pyrazol-2-ium-4-yl)phenoxy)-1-carboxyethoxy)imino)-2-(2-aminothiazol-4-yl)acetamido)-2,2-dimethyl-4-oxoazetidin-1-yl sulfate]
[1]
  AB_CL6188 MITC95: 12.5 µM
[2]
  EC_CLB30016 MITC95: 6.25 µM

## C[n+]1cc(-c2ccc(OC[C@H](O/N=C(\C(=O)N[C@@H]3C(=O)N(OS(=O)(=O)[O-])C3(C)C)c3csc(N)n3)C(=O)O)cc2)ccc1NCC1(O)CNC1 [Example 73, (S)-3-((Z)-2-(2-aminothiazol-4-yl)-2-(((S)-1-carboxy-2-(4-(6-(((3-hydroxyazetidin-3-yl)methyl)amino)-1-methylpyridin-1-ium-3-yl)phenoxy)ethoxy)imino)acetamido)-2,2-dimethyl-4-oxoazetidin-1-yl sulfate]
[1]
  AB_CL6188 MITC95: 1.563 µM
[2]
  EC_CLB30016 MITC95: 3.125 µM

## C[n+]1cc(-c2ccc(OC[C@H](O/N=C(\C(=O)N[C@@H]3C(=O)N(OS(=O)(=O)[O-])C3(C)C)c3nc(N)sc3Cl)C(=O)O)cc2)cn1CCCN [Example 11, (S)-3-((Z)-2-(2-Amino-5-chlorothiazol-4-yl)-2-(((S)-2-(4-(1-(3-aminopropyl)-2-methyl-1H-pyrazol-2-ium-4-yl)phenoxy)-1-carboxyethoxy)imino)acetamido)-2,2-dimethyl-4-oxoazetidin-1-yl sulfate]
[1]
  AB_CL6188 MITC95: 3.125 µM
[2]
  EC_CLB30016 MITC95: 6.25 µM

## C[n+]1cc(-c2ccc(OC[C@H](O/N=C(\C(=O)N[C@@H]3C(=O)N(OS(=O)(=O)[O-])C3(C)C)c3csc(N)n3)C(=O)O)cc2)ccc1CNCCN [Example 78, (S)-3-((Z)-2-(((S)-2-(4-(6-(((2-aminoethyl)amino)methyl)-1-methylpyridin-1-ium-3-yl)phenoxy)-1-carboxyethoxy)imino)-2-(2-aminothiazol-4-yl)acetamido)-2,2-dimethyl-4-oxoazetidin-1-yl sulfate]
[1]
  AB_CL6188 MITC95: 6.25 µM
[2]
  EC_CLB30016 MITC95: 12.5 µM

## C[n+]1cc(-c2ccc(OC[C@H](O/N=C(\C(=O)N[C@@H]3C(=O)N(OS(=O)(=O)[O-])C3(C)C)c3csc(N)n3)C(=O)O)cc2)ccc1C(=O)NC(CN)CN [Example 80, (S)-3-((Z)-2-(2-aminothiazol-4-yl)-2-(((S)-1-carboxy-2-(4-(6-((1,3-diaminopropan-2-yl)carbamoyl)-1-methylpyridin-1-ium-3-yl)phenoxy)ethoxy)imino)acetamido)-2,2-dimethyl-4-oxoazetidin-1-yl sulfate]
[1]
  AB_CL6188 MITC95: 1.563 µM
[2]
  EC_CLB30016 MITC95: 6.25 µM

## CC1(C)[C@H](NC(=O)/C(=N\O[C@@H](COc2ccc(-c3cn(CCCN)[n+](CC4CNC4)c3)cc2)C(=O)O)c2csc(N)n2)C(=O)N1OS(=O)(=O)[O-] [Example 97, (S)-3-((Z)-2-(((S)-2-(4-(1-(3-aminopropyl)-2-(azetidin-3-ylmethyl)-1H-pyrazol-2-ium-4-yl)phenoxy)-1-carboxyethoxy)imino)-2-(2-aminothiazol-4-yl)acetamido)-2,2-dimethyl-4-oxoazetidin-1-yl sulfate]
[1]
  AB_CL6188 MITC95: 1.391 µM
[2]
  EC_CLB30016 MITC95: 2.563 µM

## C[n+]1cc(-c2ccc(OC[C@@](C)(O/N=C(\C(=O)N[C@@H]3C(=O)N(OS(=O)(=O)O)C3(C)C)c3nc(N)sc3Cl)C(=O)O)cc2)cn1CCCN [Example 51B, (S)-3-((Z)-2-(2-amino-5-chlorothiazol-4-yl)-2-((((R)-1-(4-(1-(3-aminopropyl)-2-methyl-1H-pyrazol-2-ium-4-yl)phenoxy)-2-carboxypropan-2-yl)oxy)imino)acetamido)-2,2-dimethyl-4-oxoazetidin-1-yl sulfate]
[1]
  AB_CL6188 MITC95: 25 µM
[2]
  EC_CLB30016 MITC95: 100 µM

## CC1(C)[C@H](NC(=O)/C(=N\O[C@@H](COc2ccc(-c3cc(CNCCN)n(CCCN)n3)cc2)C(=O)O)c2csc(N)n2)C(=O)N1OS(=O)(=O)O [Example 125, (S)-3-(4-(5-(((2-Aminoethyl)amino)methyl)-1-(3-aminopropyl)-1H-pyrazol-3-yl)phenoxy)-2-((((Z)-1-(2-aminothiazol-4-yl)-2-(((S)-2,2-dimethyl-4-oxo-1-(sulfooxy)azetidin-3-yl)amino)-2-oxoethylidene)amino)oxy)propanoic acid]
[1]
  AB_CL6188 MITC95: 3.125 µM
[2]
  EC_CLB30016 MITC95: 3.125 µM

## CC1(C)[C@H](NC(=O)/C(=N\O[C@@H](COc2ccc(C3CN=C(NCCN)N3)cc2)C(=O)O)c2csc(N)n2)C(=O)N1OS(=O)(=O)O (stereo partly drawn) [Example 60, (2S)-3-(4-(2-((2-aminoethyl)amino)-4,5-dihydro-1H-imidazol-5-yl)phenoxy)-2-((((Z)-1-(2-aminothiazol-4-yl)-2-(((S)-2,2-dimethyl-4-oxo-1-(sulfooxy)azetidin-3-yl)amino)-2-oxoethylidene)amino)oxy)propanoic acid]
[1]
  AB_CL6188 MITC95: 3.125 µM
[2]
  EC_CLB30016 MITC95: 12.5 µM

## CC1(C)[C@H](NC(=O)/C(=N\O[C@@H](COc2ccc(-n3cc[n+](CC4CNC4)c3)nc2)C(=O)O)c2csc(N)n2)C(=O)N1OS(=O)(=O)[O-] [Example 109, (S)-3-((Z)-2-(2-aminothiazol-4-yl)-2-(((S)-2-((6-(3-(azetidin-3-ylmethyl)-1H-imidazol-3-ium-1-yl)pyridin-3-yl)oxy)-1-carboxyethoxy)imino)acetamido)-2,2-dimethyl-4-oxoazetidin-1-yl sulfate]
[1]
  AB_CL6188 MITC95: 6.25 µM
[2]
  EC_CLB30016 MITC95: 12.5 µM

## CC1(C)[C@H](NC(=O)/C(=N\O[C@@H](COc2ccc(-c3cn(CCCN)[n+](CC4(F)CNC4)c3)cc2)C(=O)O)c2csc(N)n2)C(=O)N1OS(=O)(=O)[O-] [Example 119, (S)-3-((Z)-2-(((S)-2-(4-(1-(3-aminopropyl)-2-((3-fluoroazetidin-3-yl)methyl)-1H-pyrazol-2-ium-4-yl)phenoxy)-1-carboxyethoxy)imino)-2-(2-aminothiazol-4-yl)acetamido)-2,2-dimethyl-4-oxoazetidin-1-yl sulfate]
[1]
  AB_CL6188 MITC95: 6.25 µM
[2]
  EC_CLB30016 MITC95: 6.25 µM

## CC(CN)Nc1ccc(-c2ccc(OC[C@H](O/N=C(\C(=O)N[C@@H]3C(=O)N(OS(=O)(=O)[O-])C3(C)C)c3csc(N)n3)C(=O)O)cc2)c[n+]1C (stereo partly drawn) [Example 76, (3S)-3-((Z)-2-(((1S)-2-(4-(6-((1-aminopropan-2-yl)amino)-1-methylpyridin-1-ium-3-yl)phenoxy)-1-carboxyethoxy)imino)-2-(2-aminothiazol-4-yl)acetamido)-2,2-dimethyl-4-oxoazetidin-1-yl sulfate]
[1]
  AB_CL6188 MITC95: 0.7813 µM
[2]
  EC_CLB30016 MITC95: 3.125 µM
